# Source: PubChem BioAssay AID504706 (National Center for Advancing Translational Sciences (NCATS), 2011)
# Among all 320,000 compounds or so, about 200 (0.062%) were called active. Inconclusive means that the source gave no clear call. Such entries were picked first, then a sample of the others. The call rests on the fitted dose curve; in most records, active means well fitted activation curve with a large enough effect; inconclusive means small, poorly fitted or top-dose-only effect; inactive means no such curve, though single readings can be large or run the other way. Potencies of inconclusive entries are left out as doubtful fits.
# Assay: qHTS assay for re-activators of p53 using a Luc reporter; further: nearly all actives have a fitted effect of over 45% in size; on activity change, positive = activation: % of control where 0% means no effect
# Conditions: H1299 p53-A138V BP100-luciferase reporter, luminescence, 24 h; series mostly up to 92.2 µM; activity change, positive = activation: at the top concentration
# In short: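 H1299 (p53-null), stable ts p53-A138V + BP100-Luc; 1000 cells/well, Opti-MEM/10% FBS; cpd 4 pt, 1:5; 24 h, 37 deg C, 5% CO2; detection reagent 10 min RT; luminescence.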
# Potency means the concentration at half of the fitted maximal effect; tags describe the fitted curve by direction and shape.
Structure (SMILES),Potency,"activity change, positive = activation"
Cc1nc(SCC(=O)N2CCOCC2)c2ccsc2n1,"inconclusive [activator, partial curve, poor fit]",–
CNc1nc(-c2ccccn2)nnc1-c1ccccc1,"inconclusive [activator, partial curve, poor fit]",–
O=C(N/N=C/C1=C(N2CCOCC2)C(=C\c2ccccc2)/CC1)Nc1ccccc1,–,inactive: -1.21%
Cc1cccc(C(=O)Nc2ccc(C(=O)/C=C/c3cccs3)cc2)c1,"inconclusive [activator, full curve, poor fit]",–
N#C/C(=C\c1cccs1)C(=O)NCc1ccco1,"inconclusive [activator, single point]",–
CCOC(=O)/C(C#N)=C1/C=CN(c2ccc(C)cc2)C=N1,"inconclusive [activator, single point]",–
CCOc1ccccc1C(=O)NCC(=O)N1CCC(C)CC1,–,inactive: 9.6%
O=C1c2ccccc2C(=O)C1c1nccc2ccccc12,"inconclusive [activator, partial curve, poor fit]",–
O=C(Nc1nc2ccccc2[nH]1)c1ccccc1[N+](=O)[O-],–,inactive: 22%
O=C(N/N=C/c1cccnc1)c1ccc2c(c1)OCCO2,"inconclusive [activator, partial curve, poor fit]",–
O=C(CC(Nc1ccc(F)cc1)C(=O)O)c1ccccc1 (configuration not stated),"inconclusive [activator, partial curve, poor fit]",–
O=C(Oc1ccc2ccc(=O)oc2c1)N1CCOCC1,"inconclusive [activator, single point]",–
CCC(C)c1ccc2oc(-c3ccc(NC(=O)Cn4cnc5c(=O)n(C)c(=O)n(C)c54)cc3)nc2c1 (configuration not stated),"inconclusive [activator, full curve, poor fit]",–
COC(=O)CCC(=O)N1CCCC(C(=O)c2cc(F)ccc2F)C1 (configuration not stated),"inconclusive [activator, partial curve, poor fit]",–
O=C(CSc1nnc(-c2cccs2)o1)N1CCCCC1,"inconclusive [activator, full curve, poor fit]",–
CCOC(=O)c1ccc2nc(NC(C)=O)sc2c1,–,inactive: 23.6%
COc1ccc(C2C(C(=O)Nc3ccccc3OC)=C(C)Nc3nnnn32)c(OC)c1 (configuration not stated),"inconclusive [activator, single point]",–
COc1ccc(NC(=O)c2ccc3snnc3c2)cc1,"inconclusive [activator, partial curve, poor fit]",–
O=C(CSc1cccc[n+]1[O-])c1cc2ccccc2o1,"inconclusive [activator, partial curve, poor fit]",–
Cc1ccc(C)c(NC(=S)N(Cc2ccco2)C(C)c2cccs2)c1 (configuration not stated),–,inactive: -2.69%
COc1nccnc1NS(=O)(=O)c1ccc(NC(=S)NC(=O)c2ccccc2F)cc1,–,inactive: -9.18%
CCC(C(=O)O)n1nnc(-c2ccc(-c3ccc(OC)cc3)cc2)n1 (configuration not stated),"inconclusive [activator, partial curve, poor fit]",–
Cn1cccc1C(=O)Nc1nccs1,"inconclusive [activator, single point]",–
CCOc1ccc(N2C(=O)c3ccccc3NC2(C)CC)cc1 (configuration not stated),"inconclusive [activator, partial curve, poor fit]",–

Structure (SMILES),Potency,"activity change, positive = activation"
COc1cccc(Nc2ncnc3onc(-c4ccccc4OC)c23)c1,–,inactive: 8.69%
O=c1ccn(CCCBr)c(=O)[nH]1,"inconclusive [activator, partial curve, poor fit]",–
CCOC(=O)c1c(C)[nH]c(C=O)c1Cc1cccc(Cl)c1,–,inactive: -3.55%
COc1ccc2ccc(Oc3ncccn3)cc2c1,–,inactive: 10.2%
Clc1ccc(OCCSc2ncccn2)cc1,"inconclusive [activator, partial curve, poor fit]",–
N#Cc1nc(COc2cccc(Cl)c2)oc1NCc1ccco1,"inconclusive [activator, partial curve, poor fit]",–
CCOC(=O)c1cnn(-c2ccccn2)c1N,"inconclusive [activator, partial curve, poor fit]",–
COc1ccc(Cc2nc(C(=O)Nc3ccc(F)cc3)cs2)cc1,"inconclusive [activator, partial curve, poor fit]",–
Cc1ccc(NC(=S)N(CCN2CCCCC2)Cc2ccco2)cc1Cl,–,inactive: -0.108%
Cc1cccc(C(=O)NN/C=C/C(=O)c2ccccc2)c1,–,inactive: -2.53%
CCN(CC)CC(=O)Nc1c(C)cc(C(C)(C)C)cc1C,"inconclusive [activator, partial curve, poor fit]",–
CC(C)(C)C(=O)CSc1ccc(S(=O)(=O)N2CCCC2)cn1,"inconclusive [activator, single point]",–
CN(Cc1ccccc1)C(=O)CN1C(=O)c2ccccc2S1(=O)=O,"inconclusive [activator, full curve, poor fit]",–
O=C(CCN1CCN(c2ccccc2)CC1)N/N=C/c1ccc([N+](=O)[O-])o1,–,inactive: 8.44%
O=C1OCC/C1=C\c1ccc2c(c1)OCO2,–,inactive: 7.38%
CN(C)c1ccc(N=C/C=C2/N(C)c3ccccc3C2(C)C)cc1,"inconclusive [activator, partial curve, poor fit]",–
COc1ccc(Cl)cc1NC(=O)Nc1ccccc1C(N)=O,–,inactive: 0.466%
CCSc1nc2sc3c(c2c(=O)[nH]1)CCc1ccccc1-3,"inconclusive [activator, single point]",–
Cc1ccc(-c2ccc(CO)o2)cc1N,–,inactive: 2.53%
COc1ccc(CC(=O)OCC(=O)N2CCCc3ccccc32)cc1OC,–,inactive: 5.45%
O=C(O)c1ccccc1C(=O)c1ccc(N2CCCC2)c([N+](=O)[O-])c1,–,inactive: 7.59%
O=C(NC(=S)NCC1CCCO1)c1ccc(Cl)cc1 (configuration not stated),"inconclusive [activator, partial curve, poor fit]",–
CCN1CCN(C(=O)C(C)Oc2ccc(S(=O)(=O)N3CCCC3)cc2C(N)=O)CC1 (configuration not stated),"inconclusive [activator, single point]",–
